Like-named read-outs stand apart in the source and are kept apart here.
Assays:
[1] = system: KC-0122:BaF3 EGFR-L858R/T790M/C797S; assay: cells; conditions: KC-0122, 72 h
[2] = system: KC-0116:BaF3 EGFR-Del19/T790M/C797S; assay: cells; conditions: KC-0116, 72 h
[3] = read-out: cell proliferation inhibition IC50 (μM) KC-0122, 72 h, CCK-8
[4] = read-out: cell proliferation inhibition IC50 (μM) KC-0116, 72 h, CCK-8
[5] = read-out: cell proliferation inhibition IC50 (μM) KC-0122, 72 h, CCK-8, Table 5 numeric
[6] = read-out: cell proliferation inhibition IC50 (μM) KC-0116, 72 h, CCK-8, Table 5 numeric
[7] = read-out: cell proliferation inhibition IC50 (μM) KC-0116

Compound	IC50 [1, 3] [µM]	IC50 [2, 4] [µM]	IC50 [1, 5] [µM]	IC50 [2, 6] [µM]	IC50 [2, 7] [µM]	IC50 ([1]; read-out: cell proliferation inhibition IC50 (μM) KC-0122) [µM]
CN1CCN(c2ccc(Nc3nc(N[C@H]4CCN(C(=O)CC(C)(C)C)C4)c4c(C(=O)c5ccc(F)cc5)c[nH]c4n3)cc2)CC1 [Example 51]	0.1 to 1	0.1 to 1				
COc1cc(N2CCC(N3CCN(C)CC3)CC2)ccc1Nc1ncc(Cl)c(Nc2ccccc2P(C)(C)=O)n1 [Brigatinib, reference compound]	0.1 to 1	0.1 to 1	0.49	0.43		
Cc1ccc(C(=O)c2c[nH]c3nc(Nc4ccc(N5CCOCC5)cc4)nc(N[C@H]4CC[C@H](CO)CC4)c23)cc1 [Example 97]	< 0.1	< 0.1				
CN1CCN(c2ccc(Nc3nc(N[C@H]4CCCN(S(=O)(=O)C5CC5)C4)c4c(C(=O)c5ccc(F)cc5)c[nH]c4n3)cc2)CC1 [Example 21]			0.27		0.15	
COc1nn(C)cc1Nc1nc(N[C@H]2CC[C@@H](CO)CC2)c2c(C(=O)c3ccc(F)cc3)c[nH]c2n1 [Example 116]	0.1 to 1	0.1 to 1				
CN1CCN(c2ccc(Nc3nc(NCC4CCOCC4)c4c(C(=O)c5ccc(F)cc5)c[nH]c4n3)cc2)CC1 [Example 59]	< 0.1	< 0.1				
CN1CCN(c2ccc(Nc3nc(NC4CCCOC4)c4c(C(=O)c5ccc(F)cc5)c[nH]c4n3)cc2)CC1 (centres unmarked) [Example 74]	0.1 to 1	0.1 to 1				
COc1cc(N2CCN(C)CC2)ccc1Nc1nc(N[C@H]2CC[C@@H](CO)CC2)c2c(C(=O)c3ccc(F)cc3)c[nH]c2n1 [Example 106]	< 0.1	0.1 to 1				
CN1CCN(c2ccc(Nc3nc(NC4CCN(C(=O)C(C)(C)C)CC4)c4c(C(=O)c5ccc(F)cc5)c[nH]c4n3)cc2)CC1 [Example 65]	0.1 to 1	0.1 to 1				
C=CC(=O)N1CC[C@@H](Nc2nc(Nc3cnn(C)c3)nc3[nH]cc(C(=O)c4ccc(F)cc4)c23)C1 [Example 109]	1 to 2	1 to 2				
C=CC(=O)N1CCC[C@@H](Nc2nc(Nc3ccc(N4CCN(C)CC4)cc3)nc3[nH]cc(C(=O)c4ccc(F)cc4)c23)C1 [Example 24]	0.1 to 1	0.1 to 1				
CN1CCN(c2ccc(Nc3nc(NC4CCN(C(=O)CC(C)(C)C)CC4)c4c(C(=O)c5ccc(F)cc5)c[nH]c4n3)cc2)CC1 [Example 66]	0.1 to 1	0.1 to 1				
CN1CCN(c2ccc(Nc3nc(N[C@H]4CC[C@@H](O)CC4)c4c(C(=O)c5ccc(F)cc5)c[nH]c4n3)cc2)CC1 [Example 55]	< 0.1	< 0.1				
C=CC(=O)N1CC[C@@H](Nc2nc(Nc3ccc(N4CCN(C)CC4)cc3)nc3[nH]cc(C(=O)c4ccc(F)cc4)c23)C1 [Example 26]			0.68	0.17		
CN(C)CCOc1ccc(Nc2nc(N[C@H]3CC[C@@H](CO)CC3)c3c(C(=O)c4ccc(F)cc4)c[nH]c3n2)cc1 [Example 107]	0.1 to 1	0.1 to 1				
CN1CCN(c2ccc(Nc3nc(N[C@@H]4CCN(S(=O)(=O)C5CC5)C4)c4c(C(=O)c5ccc(F)cc5)c[nH]c4n3)cc2)CC1 [Example 22]	1 to 2	0.1 to 1				
C=CC(=O)Nc1cccc(Oc2nc(Nc3ccc(N4CCN(C)CC4)c(F)c3)nc3[nH]ccc23)c1 [Avitinib, reference compound]	1 to 2	0.1 to 1	1.5	0.97		

Compound	IC50 [1, 3] [µM]	IC50 [2, 4] [µM]	IC50 [1, 5] [µM]	IC50 [2, 6] [µM]	IC50 [2, 7] [µM]	IC50 ([1]; read-out: cell proliferation inhibition IC50 (μM) KC-0122) [µM]
CN1CCN(c2ccc(Nc3nc(NC4CCN(S(C)(=O)=O)CC4)c4c(C(=O)c5ccc(F)cc5)c[nH]c4n3)cc2)CC1 [Example 64]	< 0.1	< 0.1				
CN1CCN(c2ccc(Nc3nc(N[C@H]4CC[C@@H](N)CC4)c4c(C(=O)c5ccc(F)cc5)c[nH]c4n3)cc2)CC1 [Example 86]	0.1 to 1	< 0.1				
CN1CCN(c2ccc(Nc3nc(N[C@@H]4C=C[C@H](CO)C4)c4c(C(=O)c5ccc(F)cc5)c[nH]c4n3)cc2)CC1 [Example 19]	0.1 to 1	0.1 to 1				
CN1CCN(c2ccc(Nc3nc(N[C@@H]4CC[C@@H](CO)OC4)c4c(C(=O)c5ccc(F)cc5)c[nH]c4n3)cc2)CC1 [Example 95]	0.1 to 1	0.1 to 1				
CN1CCN(c2ccc(Nc3nc(N[C@@H]4CCCN(S(=O)(=O)C5CC5)C4)c4c(C(=O)c5ccc(F)cc5)c[nH]c4n3)cc2)CC1 [Example 3]					0.15	0.14
CN1CCN(c2ccc(Nc3nc(NC4COC4)c4c(C(=O)c5ccc(F)cc5)c[nH]c4n3)cc2)CC1 [Example 69]	0.1 to 1	0.1 to 1				
CN1CCN(c2ccc(Nc3nc(N[C@H](CO)C(C)(C)C)c4c(C(=O)c5ccc(F)cc5)c[nH]c4n3)cc2)CC1 [Example 9]	0.1 to 1	0.1 to 1				
CN1CCN(c2ccc(Nc3nc(N[C@H]4CCN(S(=O)(=O)C5CC5)C4)c4c(C(=O)c5ccc(F)cc5)c[nH]c4n3)cc2)CC1 [Example 23]	0.1 to 1	0.1 to 1				
CN1CCC(n2cc(Nc3nc(N[C@H]4CC[C@@H](CO)CC4)c4c(C(=O)c5ccc(F)cc5)c[nH]c4n3)cn2)CC1 [Example 115]	0.1 to 1	0.1 to 1				
CN1CCN(c2ccc(Nc3nc(NC4CCOCC4)c4c(C(=O)c5ccc(F)cc5)c[nH]c4n3)cc2)CC1 [Example 40]	< 0.1	< 0.1	0.051	0.06		
CN1CCN(c2ccc(Nc3nc(NCCN4CCCCC4)c4c(C(=O)c5ccc(F)cc5)c[nH]c4n3)cc2)CC1 [Example 77]	0.1 to 1	0.1 to 1				
O=C(c1ccc(F)cc1)c1c[nH]c2nc(Nc3ccc(N4CCOCC4)cc3)nc(N[C@H]3CCCN(S(=O)(=O)C4CC4)C3)c12 [Example 30]	0.1 to 1	< 0.1				
CN1CCN(c2ccc(Nc3nc(NCCN4CCOCC4)c4c(C(=O)c5ccc(F)cc5)c[nH]c4n3)cc2)CC1 [Example 75]	0.1 to 1	0.1 to 1				
CN1CCN(c2ccc(Nc3nc(N[C@H]4CCN(S(=O)(=O)C5CC5)C4)c4c(C(=O)c5ccc(F)cc5F)c[nH]c4n3)cc2)CC1 [Example 48]	0.1 to 1	0.1 to 1				
O=C(c1cccc(F)c1)c1c[nH]c2nc(Nc3ccc(N4CCOCC4)cc3)nc(N[C@H]3CC[C@H](CO)CC3)c12 [Example 92]	< 0.1	< 0.1	0.0063	0.0075		
CN1CCN(c2ccc(Nc3nc(N[C@H]4CC[C@H](O)CC4)c4c(C(=O)c5ccc(F)cc5)c[nH]c4n3)cc2)CC1 [Example 56]	< 0.1	< 0.1				
CN1CCN(c2ccc(Nc3nc(NC45CC6CC(CC(O)(C6)C4)C5)c4c(C(=O)c5ccc(F)cc5)c[nH]c4n3)cc2)CC1 [Example 70]	< 0.1	< 0.1				

Second part, led by results:

IC50 [1, 3] [µM]	IC50 [2, 4] [µM]	IC50 [1, 5] [µM]	IC50 [2, 6] [µM]	Compound	IC50 [2, 7] [µM]	IC50 ([1]; read-out: cell proliferation inhibition IC50 (μM) KC-0122) [µM]
0.1 to 1	< 0.1			Cn1cc(Nc2nc(N[C@H]3CC[C@H](CO)CC3)c3c(C(=O)c4ccc(F)cc4)c[nH]c3n2)cn1 [Example 110]		
< 0.1	< 0.1	0.04	0.043	O=C(c1cc(F)cc(F)c1)c1c[nH]c2nc(Nc3ccc(N4CCOCC4)cc3)nc(N[C@H]3CC[C@H](CO)CC3)c12 [Example 101]		
0.1 to 1	0.1 to 1			CN1CCN(c2ccc(Nc3nc(N[C@H]4C=C[C@@H](CO)C4)c4c(C(=O)c5ccc(F)cc5)c[nH]c4n3)cc2)CC1 [Example 20]		
0.1 to 1	0.1 to 1			C=CC(=O)N1CC[C@H](Nc2nc(Nc3ccc(N4CCN(C)CC4)cc3)nc3[nH]cc(C(=O)c4ccccc4F)c23)C1 [Example 46]		
< 0.1	< 0.1			O=C(c1ccccc1)c1c[nH]c2nc(Nc3ccc(N4CCOCC4)cc3)nc(N[C@H]3CC[C@H](CO)CC3)c12 [Example 98]		
0.1 to 1	0.1 to 1			C=CC(=O)N1CCC(Nc2nc(Nc3ccc(N4CCN(C)CC4)cc3)nc3[nH]cc(C(=O)c4ccc(F)cc4)c23)CC1 [Example 62]		
0.1 to 1	0.1 to 1			C=CC(=O)N1CCC[C@H](Nc2nc(Nc3ccc(N4CCN(C)CC4)cc3)nc3[nH]cc(C(=O)c4ccc(F)cc4)c23)C1 [Example 25]		
		0.45	0.31	Cn1cc(Nc2nc(N[C@@H]3CCCN(S(=O)(=O)C4CC4)C3)c3c(C(=O)c4ccc(F)cc4)c[nH]c3n2)cn1 [Example 4]		
0.1 to 1	0.1 to 1			CN1CCN(c2ccc(Nc3nc(N[C@H]4CCN(S(=O)(=O)C5CC5)C4)c4c(C(=O)c5ccccc5F)c[nH]c4n3)cc2)CC1 [Example 45]		
0.1 to 1	0.1 to 1			CN1CCN(c2ccc(Nc3nc(NCCN4CCCC4)c4c(C(=O)c5ccc(F)cc5)c[nH]c4n3)cc2)CC1 [Example 76]		
< 0.1	< 0.1			CN1CCN(c2ccc(Nc3nc(N[C@H]4CC[C@H](CO)CC4)c4c(C(=O)c5ccc(F)cc5)c[nH]c4n3)cc2)CC1 [Example 42]		
0.1 to 1	0.1 to 1			CN1CCN(c2ccc(Nc3nc(N[C@H]4CCN(C(=O)c5ccc(F)cc5)C4)c4c(C(=O)c5ccc(F)cc5)c[nH]c4n3)cc2)CC1 [Example 52]		
< 0.1	0.1 to 1			CN1CCN(c2ccc(Nc3nc(N[C@H]4CC[C@H](CO)CC4)c4c(C(=O)c5ccc(F)cc5)c[nH]c4n3)cc2F)CC1 [Example 78]		
< 0.1	< 0.1			O=C(c1ccc(F)cc1)c1c[nH]c2nc(Nc3ccc(N4CCOCC4)cc3)nc(N[C@H]3CC[C@H](CO)CC3)c12 [Example 79]		
0.1 to 1	0.1 to 1			CN1CCN(c2ccc(Nc3nc(N[C@@H](CO)C(C)(C)C)c4c(C(=O)c5ccc(F)cc5)c[nH]c4n3)cc2)CC1 [Example 8]		
0.1 to 1	0.1 to 1			CN1CCN(c2ccc(Nc3nc(NCCC4CCOCC4)c4c(C(=O)c5ccc(F)cc5)c[nH]c4n3)cc2)CC1 [Example 72]		
